Assay results published in ChEMBL document CHEMBL4888484, “Replenishing the malaria drug discovery pipeline: Screening and hit evaluation of the MMV Hit Generation Library 1 (HGL1) against asexual blood stage Plasmodium falciparum ,using a nano luciferase reporter read-out” (2022).
Out of some 150,000 compounds screened, about 540 (0.36%) showed an effect of 50% or more. Some of the results follow.

The molecules below were run on Plasmodium falciparum (assay: Primary screen in NF54 nanoGlo assay, in single point, at 2uM, 72h; a lower Z score goes with more inhibition). Conditions: timepoint 72 hour.
Assay type: functional, Erythrocyte

Structure (SMILES) | % Inhibition [%] | Z score
CC(C)(C)OC(=O)NC1CCN(c2ncc(S(=O)(=O)c3ccccc3)c(N)n2)CC1 | -2 | 0.34
CCn1nc(C)c(-c2cc(C(=O)N3C[C@H]4CC[C@@H](O)[C@H]4C3)no2)c1C | -15 | 1.5
O=C(Nc1cc(S(=O)(=O)N2CCCC2)ccc1O)c1ccc2[nH]cnc2c1 | -6 | 0.84
CN(C)c1cccc(C(=O)N2C[C@H](N(C)C)C[C@H]2CO)c1 | -26 | 2.3
CCOc1ccc(NC(=O)C2CCN(c3cc(-c4ccc(C)cc4)ncn3)CC2)cc1 | -9 | 0.99
CCN1CCN(Cc2ncnn2-c2ccc(C)cc2)CC1 | -5 | 1.11
O=C(NCc1ccc(F)cc1)c1nc(Cc2ccccc2)n(-c2ccccc2)n1 | -18 | 2.2
CCCc1nc(-c2cc3cc(C)ccc3nc2NCc2cc(OC)ccc2OC)no1 | 5 | -0.6
CCn1ncc(C)c1NC(=O)CN(C)CCOC | -14 | 1.29
Cc1cccc(NC(=O)CC(C)(C)CC(=O)O)c1C | 37 | -1.21
Cc1cc(F)cc(N2C(=O)N[C@@H](C3CCOCC3)C2=O)c1 | -5 | 0.62
O=C(CN1C(=O)c2ccccc2C1=O)N1CC(=O)N2CCc3ccccc3[C@@H]2C1 | 65 | -8.85
O=C(c1cccn1C1CC1)N1CCC(F)(F)CC1 | -4 | 0.7
Cc1ccc(-n2c(C)c(CNCc3ccc(C)o3)c(C(=O)O)c2C)cc1 | -12 | 1.55
O=C(CN1C(=O)COc2ccccc21)N1CCN(c2ccccc2F)CC1 | -5 | 0.61
CCn1c(C)c(-c2nc(C3CC3)no2)c(S(=O)(=O)NCc2ccco2)c1C | -11 | 2.19
CN(CC(=O)N[C@H]1CN(c2ncccn2)C[C@@H]1C1CC1)C1CCCC1 | 2 | -0.32
Cc1cc(OC(=O)c2ccc(Cl)cc2)c(C)cc1CN1CCOCC1 | -18 | 2.36
O=S(=O)(c1ccccc1Cl)N1CCC[C@H](c2nc(O)c3nnn(Cc4ccc(OC(F)(F)F)cc4)c3n2)C1 | -1 | 0.08
Cc1nn(C)c(C)c1-c1cc(C(=O)NCc2c(F)cccc2Cl)n(C)n1 | -17 | 1.68
COCc1nc(-c2ccc(N3CCOCC3)cc2)n(CC(F)(F)F)n1 | 1 | -0.1
Cc1ccccc1C(=O)N1CCC[C@H]1c1nc2cc(-c3ccccc3C(F)(F)F)ccc2o1 | -20 | 1.99
Cc1ccc([C@H]2c3cc(OCc4nc(C(=O)NCC5CC5)cs4)ccc3CCN2C(=O)C2CCCC2)cc1 | -6 | 0.96
C[C@H](NCC(C)(C)C(N)=O)c1cc(F)ccc1F | 1 | -0.1
COc1ccc(CNC(=O)Cn2cnc3c(c2=O)CN(Cc2ccc(C)cc2)CC3)cc1 | -13 | 1.62
CC1(C)C(=O)NCCN1C(=O)CCOCC(F)(F)C(F)F | -12 | 1.04

Structure (SMILES) | % Inhibition [%] | Z score
Cc1cc(C)n(-c2ccc(CCC(=O)N3CCC(F)(F)CC3)cc2)n1 | -12 | 2.19
CCOC(=O)N1CCN(C(=O)CCc2n[nH]c(-c3ccc(OCc4cccc(F)c4)c(OC)c3)nc2=O)CC1 | 23 | -3.23
Cn1nnc2c1CCC(NC(=O)[C@H]1C[C@@H]1c1ccc(Cl)cc1)C2 (some centres not stated) | -5 | 0.58
Cc1nnc(Cn2cnc3c2CCCC3)o1 | 7 | -0.99
O=C(C1CCN(S(=O)(=O)N2CCOCC2)CC1)N1CCC(Cc2nc(C3CCOCC3)no2)CC1 | -16 | 2.11
C[C@H](C(=O)N1CCN(c2ccccc2)CC1)C1CCN(S(=O)(=O)c2ccc(Cl)s2)CC1 | 5 | -0.64
CCCn1c(C(=O)NCCN2CCOCC2)cc2cc(NC(=O)CC(C)(C)C)ccc21 | -3 | 0.4
CCn1cc(S(=O)(=O)Nc2cccn3nc(C4CC4)nc23)cn1 | -13 | 1.42
CC(C(=O)N1CCCc2cc(C#N)ccc21)C1OCCc2sccc21 (configuration not stated) | -2 | 0.21
COC(=O)C1(NC(=O)c2cnc(C)s2)CCCCC1 | -11 | 1.99
CC[C@@H](C(=O)N1CC(c2nc(-c3cccc(C(=O)NC)c3)no2)C1)c1ccccc1 | -1 | 0.11
CCOC(=O)CNC(=O)N1CCN(Cc2nc3cc(C)ccc3o2)CC1 | -4 | 0.68
CCCCN(C)C(=O)c1cn(CCc2ccccn2)cc(C(=O)NC2CCCCCCC2)c1=O | -15 | 1.89
CC(C)N(C(=O)Cc1cc(-c2ccccc2)on1)c1cccnc1 | 6 | -0.85
CCN(CCO)C(=O)NC1CCCCCCC1 | -1 | 0.11
COc1cccc(F)c1C(=O)N1CCC2(CC1)[C@H](O)C[C@@H]2OC | -5 | 0.99
Cc1ccccc1[C@H]1C[C@@H](O)[C@@H](O)[C@@H]1NS(C)(=O)=O | -8 | 1.34
CS(=O)(=O)Nc1ccc(F)c(NC(=O)N[C@H]2CCCC[C@@H]2O)c1 | -7 | 1.02
CCC(CC)NC(=O)COc1cccc(C)c1 | -3 | 0.33
Cc1[nH]ncc1S(=O)(=O)NC[C@H](C)Oc1ccccc1 | -3 | 0.33
CCOCCc1nc(-c2cccc(N3CCNC3=O)c2)n(C)n1 | 7 | -0.6
Cc1cc(C)c(N2C(=O)c3ccc(C(=O)NCc4cccnc4)cc3C2=O)c(C)c1 | -6 | 1.23
Cc1ccc(C(F)(F)F)cc1C(=O)N1CCC2(CCNC(=O)CC2)CC1 | 6 | -0.56
O=C(N[C@H]1CCN(Cc2ccc3cccc(F)c3n2)C[C@@H]1O)c1ccncc1 | -4 | 0.69
CCn1nc(C)c(CN(C)S(=O)(=O)c2ccc(N3CCCC3=O)cc2)c1C | 32 | -4.57
